Some of the results follow. At the low end of the ranking the order means little.
These sequences were tested against GST-SBP-SLBP (stem-loop binding protein) (UniProt Q14493) (assay: targeted RNA Bind-n-Seq). Conditions: RBNS binding buffer: 25 mM Tris pH 7.5, 150 mM KCl, 3 mM MgCl2, 0.1% Tween, 0.5 mg/mL BSA, 1 mM DTT; 27 nM protein, 750 pM RNA pool; temperature not stated; high values mean tight binding.
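Further: DESeq read counts versus GST-SBP nonspecific binding control pulldown.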

Sequence | binding signal (log2 fold change)
GGUCACGUCUCAAUCAACUCAUUCUCAGGAGUUUACUCCUGCUAAGUCAACAGCUCGCAGUCAAG | -0.109
GGUCACGUCUCAAUCAACUCAUCCCCAGGAGUUUCCUCCUGCAUUUUCAACAGCUCGCAGUCAAG | -0.0674
GGUCACGUCUCAAUCAACUCAAAAGAGGGGGGGAAAACCCCUUUGCCCUCACUUUCAACAGCUCGCAGUCAAG | 0.573
GGUCACGUCUCAAUCAACUCUUCCUCAGGAGUUUCCUCCUGCUUUUUCAACAGCUCGCAGUCAAG | 0.179
GGUCACGUCUCAAUCAACUCAUCGUCCAGGGAAAGCCCUGGCUUAUUCAACAGCUCGCAGUCAAG | 0.156
GGUCACGUCUCAAUCAACUCAUCCGCAGGAGUUUACUCCUGGUAAUUCAACAGCUCGCAGUCAAG | 0.207
GGUCACGUCUCAAUCAACUCAUUCCCCAGGGAAAUCCCUGGUUUUUUCAACAGCUCGCAGUCAAG | 0.0742
GGUCACGUCUCAAUCAACUCAGUCUCAGGAGUUUCCUCCUGUUUAUUCAACAGCUCGCAGUCAAG | -0.00694
GGUCACGUCUCAAUCAACUCAUUCCCAGGAGUUUCCUCCUGCAUACUCAACAGCUCGCAGUCAAG | 0.0898
GGUCACGUCUCAAUCAACUCAAUUUCAGGAGUUUACUCCUGCUAAUUCAACAGCUCGCAGUCAAG | -0.0775
GGUCACGUCUCAAUCAACUCUUUCCCCAGGGAAAUCCCUGGUUAUUUCAACAGCUCGCAGUCAAG | -0.185
GGUCACGUCUCAAUCAACUCAGUCUCAGGAGUUUCCUCCUGUUUUUUCAACAGCUCGCAGUCAAG | 0.135
GGUCACGUCUCAAUCAACUCUUCUUCAGGAGUUUACUCCUGCUAUCUCAACAGCUCGCAGUCAAG | 0.209
GGUCACGUCUCAAUCAACUCUUUAGAGGGGGGGAAAACCCCUUUACCCUCGAUAUCAACAGCUCGCAGUCAAG | 0.336
GGUCACGUCUCAAUCAACUCUUUUUCAGGAGUUUUCUCCUGCUAAUUCAACAGCUCGCAGUCAAG | 0.18
GGUCACGUCUCAAUCAACUCAUUUCCCAGGGAAAUCCCUGGCAUUUUCAACAGCUCGCAGUCAAG | 0.236
GGUCACGUCUCAAUCAACUCAAUGUCAGGAGUUUACUCCUGUUUUUUCAACAGCUCGCAGUCAAG | 0.164
GGUCACGUCUCAAUCAACUCAACUCCCAGGGAAAUCCCUGGUUUACUCAACAGCUCGCAGUCAAG | 0.248
GGUCACGUCUCAAUCAACUCUUCCUCCAGGGAAAUCCCUGGUUAUUUCAACAGCUCGCAGUCAAG | -0.292
GGUCACGUCUCAAUCAACUCUUCCUCCAGGGAAAACCCUGGCUAUGUCAACAGCUCGCAGUCAAG | 0.183
GGUCACGUCUCAAUCAACUCUUCCCCAGGAGUUUUCUCCUGCUAAUUCAACAGCUCGCAGUCAAG | 0.0161
GGUCACGUCUCAAUCAACUCACAAGAGGGGGGGAAAACCCCUUUGCCCUCCAUUUCAACAGCUCGCAGUCAAG | -0.142
GGUCACGUCUCAAUCAACUCAAUCUCAGGAGUUUCCUCCUGUAAAGUCAACAGCUCGCAGUCAAG | 0.042
GGUCACGUCUCAAUCAACUCCAAAGAGGGGGGGAAAACCCCUUUGCCCUCACUUUCAACAGCUCGCAGUCAAG | 0.0464

Sequence | binding signal (log2 fold change)
GGUCACGUCUCAAUCAACUCAAGUCCAGGAGUUUCCUCCUGCAAUCUCAACAGCUCGCAGUCAAG | 0.0474
GGUCACGUCUCAAUCAACUCAAUCCCCAGGGAAAUCCCUGGUAUAUUCAACAGCUCGCAGUCAAG | -0.0896
GGUCACGUCUCAAUCAACUCAUUCGCAGGAGUUUUCUCCUGGUUAUUCAACAGCUCGCAGUCAAG | 0.0602
GGUCACGUCUCAAUCAACUCAUCCCCCAGGGAAAACCCUGGUUUUCUCAACAGCUCGCAGUCAAG | -0.18
GGUCACGUCUCAAUCAACUCUUCCGCAGGAGUUUACUCCUGGUAAUUCAACAGCUCGCAGUCAAG | -0.145
GGUCACGUCUCAAUCAACUCUUCUCCCAGGGAAAGCCCUGGCAUUUUCAACAGCUCGCAGUCAAG | 0.286
GGUCACGUCUCAAUCAACUCUUUUCCCAGGGAAACCCCUGGCAUAUUCAACAGCUCGCAGUCAAG | 0.131
GGUCACGUCUCAAUCAACUCAGUUCCAGGAGUUUCCUCCUGCAUUCUCAACAGCUCGCAGUCAAG | 0.0122
GGUCACGUCUCAAUCAACUCAUCCUCAGGAGUUUCCUCCUGUUAUUUCAACAGCUCGCAGUCAAG | 0.129
GGUCACGUCUCAAUCAACUCUACUUCAGGAGUUUUCUCCUGCAUUCUCAACAGCUCGCAGUCAAG | -0.00921
GGUCACGUCUCAAUCAACUCAAUCCCAGGAGUUUCCUCCUGCUAUGUCAACAGCUCGCAGUCAAG | 0.286
GGUCACGUCUCAAUCAACUCAAUCUCCAGGGAAAGCCCUGGCAAAUUCAACAGCUCGCAGUCAAG | -0.00557
GGUCACGUCUCAAUCAACUCAACUUCCAGGGAAAACCCUGGUAUAUUCAACAGCUCGCAGUCAAG | 0.208
GGUCACGUCUCAAUCAACUCAACUUCAGGAGUUUCCUCCUGCUAUUUCAACAGCUCGCAGUCAAG | 0.0371
GGUCACGUCUCAAUCAACUCUUUUCCCAGGGAAAGCCCUGGCAUACUCAACAGCUCGCAGUCAAG | -0.244
GGUCACGUCUCAAUCAACUCAAUCUCCAGGGAAAGCCCUGGCUUUUUCAACAGCUCGCAGUCAAG | 0.095
GGUCACGUCUCAAUCAACUCAUUCGCAGGAGUUUUCUCCUGGUAUUUCAACAGCUCGCAGUCAAG | -0.146
GGUCACGUCUCAAUCAACUCUUCUUCAGGAGUUUACUCCUGCUAUUUCAACAGCUCGCAGUCAAG | -0.159
GGUCACGUCUCAAUCAACUCUCCAGAGGGGGGGAAAACCCCUUUGCCCUCAUAAUCAACAGCUCGCAGUCAAG | -0.503
GGUCACGUCUCAAUCAACUCCUAAGAGGGGGGGAAAACCCCUUUACCCUCCAAUUCAACAGCUCGCAGUCAAG | -0.113
GGUCACGUCUCAAUCAACUCUUUUUCCAGGGAAAACCCUGGCGUAUUCAACAGCUCGCAGUCAAG | 0.352
GGUCACGUCUCAAUCAACUCUACUUCCAGGGAAAGCCCUGGCGUUUUCAACAGCUCGCAGUCAAG | -0.109
GGUCACGUCUCAAUCAACUCAUAAGAGGGGGGGAAAACCCCUUUACCCUCACCAUCAACAGCUCGCAGUCAAG | 0.0285
GGUCACGUCUCAAUCAACUCAUCGCCAGGAGUUUUCUCCUGUUUACUCAACAGCUCGCAGUCAAG | -0.0831
